Hit rate of the full screen: of about 310,000 compounds, about 2,200 (0.71%) showed an effect of 50% or more. The effect is printed as a negative number. The list shows a part of the results.
Molecular target: human ether-à-go-go-related gene (hERG) potassium channel (human, UniProt Q12809)
Test: primary screen, population patch clamp on CHO cells stably expressing hERG

Sequence of human ether-à-go-go-related gene (hERG) potassium channel (Q12809 whole entry, looked up): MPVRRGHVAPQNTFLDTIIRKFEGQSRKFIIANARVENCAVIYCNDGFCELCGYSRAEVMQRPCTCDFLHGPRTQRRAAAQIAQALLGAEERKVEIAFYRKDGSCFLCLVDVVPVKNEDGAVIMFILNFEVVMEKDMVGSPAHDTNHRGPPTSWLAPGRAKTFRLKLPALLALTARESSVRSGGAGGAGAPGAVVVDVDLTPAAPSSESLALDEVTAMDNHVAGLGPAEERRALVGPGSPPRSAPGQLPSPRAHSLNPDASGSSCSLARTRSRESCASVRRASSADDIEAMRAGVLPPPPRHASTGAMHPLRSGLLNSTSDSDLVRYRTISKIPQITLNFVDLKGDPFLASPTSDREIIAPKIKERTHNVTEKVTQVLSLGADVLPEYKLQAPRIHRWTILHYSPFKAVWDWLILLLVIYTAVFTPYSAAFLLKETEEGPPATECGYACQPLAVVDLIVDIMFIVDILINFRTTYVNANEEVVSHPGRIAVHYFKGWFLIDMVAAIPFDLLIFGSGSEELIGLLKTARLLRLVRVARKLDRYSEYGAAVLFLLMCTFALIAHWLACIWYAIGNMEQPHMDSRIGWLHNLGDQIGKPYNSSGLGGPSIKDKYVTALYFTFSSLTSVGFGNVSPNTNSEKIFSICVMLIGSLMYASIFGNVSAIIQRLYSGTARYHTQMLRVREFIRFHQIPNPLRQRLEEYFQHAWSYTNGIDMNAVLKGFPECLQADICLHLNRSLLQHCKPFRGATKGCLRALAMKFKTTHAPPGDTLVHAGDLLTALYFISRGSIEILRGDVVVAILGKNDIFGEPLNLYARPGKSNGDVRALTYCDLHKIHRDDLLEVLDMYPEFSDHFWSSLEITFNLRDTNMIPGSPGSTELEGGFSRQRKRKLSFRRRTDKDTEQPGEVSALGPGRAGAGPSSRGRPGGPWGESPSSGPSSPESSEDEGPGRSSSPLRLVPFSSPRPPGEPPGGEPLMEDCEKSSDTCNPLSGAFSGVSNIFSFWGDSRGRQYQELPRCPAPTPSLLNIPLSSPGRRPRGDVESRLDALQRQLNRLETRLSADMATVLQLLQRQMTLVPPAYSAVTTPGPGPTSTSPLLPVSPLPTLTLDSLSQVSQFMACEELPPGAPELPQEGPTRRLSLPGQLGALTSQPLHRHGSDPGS

Row | Structure (SMILES) | hERG current change (%, negative = inhibition) at 1uM
1 | CCN(CC)C(=O)N1CCN(S(=O)(=O)c2ccc(C)c(C)c2)CC1 | 12.8%
2 | Cn1c(CNc2nc(-c3ccccc3)cs2)nnc1SCC(=O)OC1CCCCC1 | 3.84%
3 | Cn1cc(CCC(=O)NCc2ccc3c(c2)OCO3)c2ccccc21 | 1.24%
4 | CC(C)C(C)NC(=O)COc1ncnc2sccc12 (stereo not drawn) | 11.8%
5 | CCOc1ccc(S(=O)(=O)N(C)CC(=O)NCc2ccccn2)cc1Cl | 1.65%
6 | COc1ccc(S(=O)(=O)Oc2c(OC)cc(C(=S)N3CCOCC3)cc2OC)cc1 | 10.6%
7 | Cc1ccc2[nH]cc(C(=O)CCl)c2c1 | 15.2%
8 | Cc1cc(Cl)nc2c(C(C)C)cccc12 | 13.1%
9 | Cc1cc(C)c2c(n1)SCC(=O)N2CC(=O)NCCC1=CCCCC1 | 12.5%
10 | CCOC(=O)c1c(C)oc2ccc(OCc3cc(C(=O)OC)oc3C)cc12 | 3.07%
11 | CCc1nc(NC(=O)NS(=O)(=O)c2ccccc2C(=O)OC)nc(OC)n1 | 14.4%
12 | O=C(Nc1nnc(C2CCCO2)s1)c1ccc(Br)cc1 (stereo not drawn) | -4.36%
13 | CCCCCOC(=O)C1[C@H]2C(=O)N(c3ccccc3CC)C[C@]23C=C[C@H]1O3 (stereo partly drawn) | 7.85%
14 | FC(F)(F)Oc1ccc(NC(=S)NCc2ccccc2)cc1 | 4.98%
15 | CC(=O)c1ccccc1NS(C)(=O)=O | 9.61%
16 | O=C(Nc1ccc(C(=O)N2CCC(O)(c3ccc(Cl)c(C(F)(F)F)c3)CC2)cc1)c1ccc(Br)o1 | 14.3%
17 | COc1ccccc1/C=C/C(=O)OCC(=O)Nc1ccc2c(c1)OCCO2 | 9.66%
18 | COC(=O)c1ccc(C(NC(=O)OCc2ccccc2)/C(C)=C/[C@@H](C)C(=O)NCc2ccc(OC)c(OC)c2)cc1 (stereo partly drawn) | 4.01%
19 | COc1ccc(-c2nc(C#N)c(NCCCn3ccnc3)o2)cc1OC | 4.48%
20 | COC(=O)c1cc2occc2n1CC(=O)Nc1ccc(C)cc1C | 16%
21 | O=C(Nc1ccccc1)N1CCC(=S)Nc2ccccc21 | 7.14%
22 | CCCCC(=O)Nc1nnc(SCC(=O)NCC2CCCO2)s1 (stereo not drawn) | 3.49%

Row | Structure (SMILES) | hERG current change (%, negative = inhibition) at 1uM
23 | O=C(Nc1nccs1)c1ccc(COc2c(F)c(F)cc(F)c2F)cc1 | 18.9%
24 | O=C(c1cccs1)N1CCC2(O)CCCCC2C1c1ccc(F)cc1 (stereo not drawn) | 11.4%
25 | CC(C)(C)NC(=O)C1CCN(S(=O)(=O)c2ccc(Br)cc2)CC1 | 6.58%
26 | CCOC(=O)c1ccc(NC(=O)C2CC(=O)N=C(N)S2)cc1 (stereo not drawn) | 10.3%
27 | CNC(=O)CN(c1ccc(OC)cc1)S(=O)(=O)c1ccc(F)cc1 | 3.91%
28 | COc1ccc(CN2CCN(C(=O)C3CCC(CNS(=O)(=O)c4ccccc4)CC3)CC2)c(OC)c1OC (stereo not drawn) | 1.84%
29 | O=C(C1CCN(c2nnc(-n3cccc3)s2)CC1)N1CCc2ccccc2C1 | -44.7%
30 | Cc1csc(NC(=O)CCn2c(=O)oc3ccc(Cl)cc32)n1 | 11.7%
31 | O=C(O)CCCNS(=O)(=O)/C=C/c1ccccc1 | 8.46%
32 | Cc1cc(NC(=O)CSc2nccn2-c2ccc([N+](=O)[O-])cc2)no1 | 4.49%
33 | Cc1ccc(S(=O)(=O)N(C)C)cc1NC(=O)COC(=O)CN1C(=O)c2ccccc2C1=O | 14.6%
34 | NCCS(=O)(=O)O | 31.2%
35 | OC1CCN(C(=S)NCCc2ccccc2)CC1 | 8.88%
36 | O=C(NC(=S)N1CCN(C/C=C/c2ccccc2)CC1)c1ccco1 | 4.12%
37 | CCCN(CC(=O)Nc1ccccc1OC)C(=O)CSc1ccc(Br)cc1C | 3.26%
38 | CC(C)(O[C@@H]1O[C@H](CO)[C@@H](O)[C@H](O)[C@H]1O)[C@H]1Cc2cc3ccc(=O)oc3cc2O1 | 9.36%
39 | CCOC(=O)CC(NC(=O)Cn1nnc(-c2ccccc2F)n1)c1ccc(OC)cc1 (stereo not drawn) | 13.4%
40 | CCC(C(=O)N1CCN(c2ccccn2)CC1)n1nc(C)n2c(cc3occc32)c1=O (stereo not drawn) | 8.44%
41 | O=C(O)c1cc(-c2ccc3c(c2)OCO3)nc2ccccc12 | 2.4%
42 | CN(C(=O)c1ccccc1C(=O)OCC(=O)Nc1cccc(Br)c1)c1ccccc1 | -2.76%
43 | COC(=O)c1sccc1NC(=S)N1CCCCC1C (stereo not drawn) | 20.5%
44 | CC(C)CNP(=S)(c1ccccc1)C(C)(C)C (stereo not drawn) | 5.6%

Row | Structure (SMILES) | hERG current change (%, negative = inhibition) at 1uM
45 | Cc1ccc(CN2CCN(Cc3ccncc3)CC2CCO)o1 (stereo not drawn) | -1.98%
46 | COc1ccccc1NS(=O)(=O)c1ccc(Cl)c(NC(=O)CN2C(=O)c3ccccc3C2=O)c1 | 4.76%
47 | O=C(Cc1csc(Nc2nc(=S)[nH]c3ccccc23)n1)NCc1ccc(Cl)cc1 | -0.883%
48 | CCN(CC)S(=O)(=O)c1ccc(N2CCOCC2)c(NC(=O)C(C)Oc2ccc(F)cc2)c1 (stereo not drawn) | 14.5%
49 | CCOC(=O)N1CCN(c2ccc(N3C(=O)CCCC3=O)cc2[N+](=O)[O-])CC1 | 23.4%
50 | CC1CCN(C(=O)CC#N)CC1 | 12.4%
51 | COc1cccc(CNC(=O)COc2cccc(-n3cnnn3)c2)c1 | -4.51%
52 | O=C(CCC1CCCN(C(=O)c2ccccc2Cl)C1)N1CCN(c2ccccn2)CC1 (stereo not drawn) | 8.95%
53 | COc1ccc(C(=O)NC2CCN(C(=O)Nc3ccccc3Cl)CC2)cc1 | 12.9%
54 | COC(=O)C1=NNC2(c3ccc(C)cc3)C(=O)N(c3cccc(C)c3C)C(=O)C12 (stereo not drawn) | 5.64%
55 | CCOc1ccccc1NC(=O)/C(C#N)=C/c1c(C)nn(-c2ccc(F)cc2)c1Cl | 2.45%
56 | CC(C)N(C(=O)N1CCC(c2nc(-c3ccncc3)no2)CC1)C(C)C | -6.46%
57 | CC(=O)Nc1cc(NC(C)=O)cc(-c2nc3ccccc3[nH]2)c1 | 10.7%
58 | CC(C)NC(=S)NNC(=O)C12CC3CC(CC(C3)C1)C2 | 0.571%
59 | CCOC(=O)C1=C(CSc2nc3ccccc3s2)NC(=O)NC1c1cccc([N+](=O)[O-])c1 (stereo not drawn) | 8.74%
60 | COc1ccc(/C=C2\SC(=O)N(CC(=O)NNC(=O)c3ccccc3O)C2=O)cc1OC | -3.05%
61 | COc1ccc(Nc2nnc(SC(C(=O)Nc3ccc(OC)c(Cl)c3)c3ccccc3)s2)cc1 (stereo not drawn) | 13.4%
62 | CN(C(=S)NC1CCCCC1)C1(c2ccccc2Cl)CCCCC1=O (stereo not drawn) | -5.81%
63 | Cn1c(=O)c2c(SCC(=O)c3ccccc3)nc(C3CC3)nc2n(C)c1=O | 7.75%
64 | COC(=O)[C@H](Cc1ccccc1)NC(=O)[C@@]1(C)C[C@@H]1[C@@H](NC(=O)OCc1ccccc1)c1ccccc1 | -3.09%
65 | COC(=O)COc1cccc(NC(=O)c2cccc(C)c2)c1 | 5.31%
66 | Nc1cc(N)nc(SCc2cc(=O)oc3cc4c(cc23)CCC4)n1 | 11.2%

Row | Structure (SMILES) | hERG current change (%, negative = inhibition) at 1uM
67 | CCN(CC)S(=O)(=O)c1ccc(C(=O)NCc2cccs2)cc1 | 3.64%
68 | CCCCOc1ccc(CC(=O)NO)cc1 | 15.9%
69 | CC1CCCCN1C(=O)/C=C/c1ccccc1[N+](=O)[O-] (stereo not drawn) | -3.02%
70 | CCNc1nc(NC(C)C)nc(SCCOc2ccc(C)cc2)n1 | 2.7%
71 | CCN1CCN(C(c2cccs2)C(C)NC(=O)c2ccccc2F)CC1 (stereo not drawn) | 2.9%
72 | O=P(O)(O)Oc1ccccc1P(=O)(c1ccccc1)c1ccccc1 | 20.8%
73 | Cc1ccc(-n2c(SCC(=O)Nc3cccc(S(=O)(=O)NC4=NCCCCC4)c3)nc3ccccc3c2=O)cc1C | 13.6%
74 | CCOc1ccc(OCC(=O)Nc2ccccc2N2CCCC2)cc1 | 15.4%
75 | Cc1cc(CNC(=O)Cn2nc(C)c([N+](=O)[O-])c2C)c2ccccc2n1 | 8.44%
76 | Cc1ccsc1/C=N/N1CCN(C2c3ccccc3-c3ccccc32)CC1 | 13.9%
77 | CCn1c(SC(C)C(=O)Nc2ccc(N3CCOCC3)cc2)nnc1-c1ccco1 (stereo not drawn) | 5.78%
78 | Cc1ccc(NC(=O)CS(=O)CC(=O)N(CC(=O)NC2CCCC2)c2ccc3c(c2)OCCO3)cc1 (stereo not drawn) | 17.2%
79 | COc1ccc(-c2nn(-c3ccccc3)cc2/C=C/C(=O)OCC(=O)Nc2ccccc2C#N)cc1 | 8.03%
80 | Cc1nn(CCC(=O)NCc2ccc(N(C)C)cc2)c(=O)c2nn(-c3ccccc3)c(C)c12 | 13.7%
81 | CCCc1nc2ccc(N)cc2c(=O)n1Cc1ccccc1Cl | 6.69%
82 | COc1ccc(-n2nc3c(N4CCC(C(=O)NCc5ccccc5C)CC4)nnc(C)c3c2C)cc1 | 12.1%
83 | COC(=O)Cc1csc(Nc2ccc(F)c(Cl)c2)n1 | -2.69%
84 | O=C(NCCCNC(=O)c1ccco1)c1ccc(Cl)cc1 | 6.25%
85 | Cc1ccccc1OCC(=O)N/N=C/c1ccc(N2CCOCC2)o1 | 9.47%
86 | O=C(C[n+]1ccc(/C=N/O)cc1)NC(=O)Nc1ccccc1 | 10.1%
87 | Cc1ccc(S(=O)(=O)NC(CC(C)C)C(=O)NCC(C)(C)N2CCOCC2)cc1 (stereo not drawn) | 15.3%
